This is an account of results in patent US20100080794A1 (published 2010).

The test addresses T1, CD16a (UniProt P08637).
T1 construct: whole, on cells; also called CD16a-expressing CHO-K1; CHO-K1 highly expressing CD16
As to the kind of experiment: flow cytometry on CD16a-expressing CHO-K1 cells, biotin-labeled anti-AILIM antibody and PE-streptavidin.

T1 sequence (P08637 17-254 limits assumed): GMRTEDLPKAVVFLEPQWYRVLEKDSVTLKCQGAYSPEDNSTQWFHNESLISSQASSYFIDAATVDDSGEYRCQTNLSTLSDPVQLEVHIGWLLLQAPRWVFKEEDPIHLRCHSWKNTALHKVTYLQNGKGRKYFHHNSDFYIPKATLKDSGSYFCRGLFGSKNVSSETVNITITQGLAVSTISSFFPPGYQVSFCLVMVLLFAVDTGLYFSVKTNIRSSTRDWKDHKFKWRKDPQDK

B1: AILIM-IgFc chimeric molecule Gln223Cys (Fc fusion)
chain: EINGSANYEMFIFHNGGVQILCKYPDIVQQFKMQLLKGGQILCDLTKTKGSGNTVSIKSLKFCHSQLSNNSVSFFLYNLDHSHANYYFCNLSIFDPPPFKVTLTGGYLHIYESQLCCQLKDPE[not shown - human IgG1 Fc with Q295C (EU numbers)]
notes: also called AILIM-IgFc Cys223; AILIM/ICOS-IgFc Cys mutant
As for B1, the “fold increased reactivity against Wt” value was about 2 fold.
